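Five concentrations, 48 hours, 96-well plates. At the TGI there is no net growth.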 The source holds more than one record for some entries. The list is limited to them. An entry can have further records. A record mostly stands for its own series of concentrations, not given here; some values may only mark the edge of a range.
Experiments:
[1] = system: NCI-H226 lung; experiment: growth of human tumour cells (NCI), 48 h
[2] = system: LOX IMVI melanoma; experiment: growth of human tumour cells (NCI), 48 h

With `C[C@@H]1C[C@H]2C(=O)OCC(NC(=O)[C@H](Cc3cc(F)cc(F)c3)NC(=O)Nc3ccc(Cl)cc3F)C(=O)N3CCC[C@H]3C(=O)N3CCCC[C@H]3C(=O)N[C@@H](C)C(=O)N2C1` (some centres not stated) the TGI [1] was 32 µM and 1.84 µM and the TGI [2] was 2.13 µM and 21.5 µM.

Source: PubChem BioAssay (NCI)
